# From the supplement of paper PMC3334620
# The full ranking holds about 33,000 sequences; the median of “E-score (-0.5 to 0.5)” is about -0.054, and the highest 2% start at about 0.35. The list shows a part of the results.
# Biological target: T1, Stb5 (UniProt P38699)
# T1 sequence: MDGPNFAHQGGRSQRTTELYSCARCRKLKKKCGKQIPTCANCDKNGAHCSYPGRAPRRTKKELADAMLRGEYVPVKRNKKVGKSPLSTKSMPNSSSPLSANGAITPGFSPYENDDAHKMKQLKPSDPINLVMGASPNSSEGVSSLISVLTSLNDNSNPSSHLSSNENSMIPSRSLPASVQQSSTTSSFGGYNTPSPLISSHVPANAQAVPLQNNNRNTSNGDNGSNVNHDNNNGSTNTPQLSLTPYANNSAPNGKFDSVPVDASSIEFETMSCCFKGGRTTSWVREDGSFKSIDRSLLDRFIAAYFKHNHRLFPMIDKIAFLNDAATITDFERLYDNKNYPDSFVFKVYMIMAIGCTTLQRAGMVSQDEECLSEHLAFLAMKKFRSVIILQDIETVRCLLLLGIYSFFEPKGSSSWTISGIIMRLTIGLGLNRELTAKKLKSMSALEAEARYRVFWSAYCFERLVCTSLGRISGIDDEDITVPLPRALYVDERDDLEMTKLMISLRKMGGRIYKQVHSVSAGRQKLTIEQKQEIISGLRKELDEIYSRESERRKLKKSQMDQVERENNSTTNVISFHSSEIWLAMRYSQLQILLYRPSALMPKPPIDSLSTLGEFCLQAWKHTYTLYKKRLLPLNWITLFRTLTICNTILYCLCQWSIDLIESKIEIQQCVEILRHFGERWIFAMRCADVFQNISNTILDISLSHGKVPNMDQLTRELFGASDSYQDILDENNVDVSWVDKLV
# Test: PBM E-score (8-mer binding enrichment) (E-score (-0.5 to 0.5)); higher = stronger / more preferred TF binding; most listed sequences are background and not binding sites
# Details: protein concentration: 200 nM; construct: GST-full length
# Procedure, shortened: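 For each ungapped eight-base word taken together with its reverse complement, the Universal PBM Analysis Suite assigned an E-score. Binding data came from GST-tagged yeast transcription factors, applied at about 100-200 nM, on universal all-10-mer Agilent arrays made double-stranded by primer extension. Fluorescent anti-GST marked bound protein, and scans were normalised with masliner.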
row,Sequence,PBM E-score
1,ATGATACC,0.253
2,AACGCTGC,-0.117
3,ACTGACTA,-0.227
4,AAGCCGAA,-0.0397
5,GTTTAATA,-0.0762
6,ACCTCTAT,-0.163
7,CGCCGCCA,0.348
8,CCGTACCC,0.0308
9,AAAACCTA,-0.149
10,AAGTAAAA,-0.0754
11,AATCCAAG,-0.243
12,TCCGGACA,0.259
13,TACCTATA,-0.234
14,AAACGCTA,-0.106
15,GACGACAA,-0.164
16,GTGTTACA,0.276
17,AGGCGATA,-0.0449
18,GCCGTAGC,0.255
19,CGTCAGAG,0.108
20,ATGTCCCG,0.219
21,CACTGGCG,-0.0814
22,GGGCCTAC,0.066

row,Sequence,PBM E-score
1,CCTACAAA,-0.067
2,GCACCACC,0.00033
3,ACCCGAGA,-0.0132
4,CGGTGAGA,0.308
5,AGACCCGG,0.341
6,ACTGTGCT,-0.241
7,CAATACAC,0.0404
8,ATTGGAAA,-0.0189
9,AGTAAAAT,-0.0638
10,TATCAATA,-0.107
11,AACCACAC,-0.0692
12,GTACCTTA,-0.108
13,CAATGCAA,-0.237
14,GCCTAACA,0.135
15,CTGACAGA,-0.0917
16,CGGAGACC,0.109
17,CTATTAAG,-0.0932
18,TCACGGAA,0.143
19,AGCCGCCA,0.175
20,CGGGCTCA,0.358
21,AAGCATCC,0.0903
22,ATTTAGCC,0.165

row,Sequence,PBM E-score
1,CCATTTAC,0.105
2,AAAGAGGT,-0.0965
3,ACCACTAT,-0.311
4,ACCCAGCG,-0.0786
5,AAGGGATT,-0.0692
6,ACTGAGGA,-0.0568
7,GACTCAAC,0.053
8,ATTTTGAA,-0.00475
9,AGCAGATA,-0.0426
10,CTTGCATA,-0.0771
11,GATACAAC,0.0993
12,ATTTACGG,0.308
13,CCACTAAC,-0.171
14,TGCATGAA,-0.171
15,CACCGTCG,0.373
16,CATAGTGG,-0.00613
17,AGAAGCAG,-0.173
18,GACGAGGA,-0.294
19,ACAAGGTG,-0.00144
20,CTCTGGTA,-0.154
21,AGCCGTGG,-0.0217
22,AGATCGTC,-0.196

row,Sequence,PBM E-score
1,ACCAACTG,-0.19
2,TATCGCGA,0.0404
3,AGGCCGAA,0.148
4,GACATTAC,0.0556
5,ATGATGAA,-0.196
6,CACATCCC,-0.137
7,GGCGATAA,0.284
8,GGGCTTGA,-0.178
9,CCAATTGC,-0.138
10,ACACAGGG,-0.00359
11,CATGGCAA,-0.214
12,AACCTGAA,-0.145
13,TGCTGTAA,-0.143
14,TTCAACAA,0.0239
15,CCAACTAG,-0.285
16,GCCGAACA,0.105
17,AAATTATT,0.00447
18,CCCGAATA,0.179
19,AAGTAGAC,-0.125
20,GATAGAGC,0.191
